# The list shows a part of the results. The list includes weakly bound sequences.
# Biological target: T1, MBP-FoxP3dN (UniProt Q99JB6)
# T1 sequence: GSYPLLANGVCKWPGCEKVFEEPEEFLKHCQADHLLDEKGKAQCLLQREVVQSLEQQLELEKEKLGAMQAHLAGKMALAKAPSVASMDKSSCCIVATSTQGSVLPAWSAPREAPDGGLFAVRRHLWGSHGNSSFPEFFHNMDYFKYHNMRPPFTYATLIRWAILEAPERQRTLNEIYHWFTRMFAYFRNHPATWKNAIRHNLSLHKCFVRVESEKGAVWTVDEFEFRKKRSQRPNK
# Assay: PD-seq (MBP pull-down with sequencing)
# Conditions: 20 mM Tris-HCl pH 7.5, 100 mM NaCl, 1.5 mM MgCl2, 0.4 uM protein, 0.1 uM dsDNA library, 30 min, room temperature, amylose pull-down; high values mean tight binding; double strand, one strand shown
row,Sequence,binding signal (RPM ratio (pull-down/input))
1,GATGATTGTTCTCCCAGCTGATGAATTTCCGGGCTCGAGTAAACAAATTTTCCTAATCTTTCTGTTCAAGCGCCATCTAC,0.194
2,GATGATTGTTCTCCCAGCTGATGAATTCAGGTCGTCGAGTAAACAAATTTTCCTAATCTTTCTGTTCAAGCGCCATCTAC,0.463
3,GATGATTGTTCTCCCAGCTGATGAATTCTCGAGATCGAGTAAACAAATTTTCCTAATCTTTCTGTTCAAGCGCCATCTAC,0.194
4,GATGATTGTTCTCCCAGCTGATGAATTCTCACCGTCGAGTAAACAAATTTTCCTAATCTTTCTGTTCAAGCGCCATCTAC,0.238
5,GATGATTGTTCTCCCAGCTGATGAATTTATAGCATCGAGTAAACAAATTTTCCTAATCTTTCTGTTCAAGCGCCATCTAC,1.75
6,GATGATTGTTCTCCCAGCTGATGAATTCCTCGCGTCGAGTAAACAAATTTTCCTAATCTTTCTGTTCAAGCGCCATCTAC,0.461
7,GATGATTGTTCTCCCAGCTGATGAATTGCTAGCTTCGAGTAAACAAATTTTCCTAATCTTTCTGTTCAAGCGCCATCTAC,0.705
8,GATGATTGTTCTCCCAGCTGATGAATTTCAAAACTCGAGTAAACAAATTTTCCTAATCTTTCTGTTCAAGCGCCATCTAC,0.241
9,GATGATTGTTCTCCCAGCTGATGAATTCCCCCAATCGAGTAAACAAATTTTCCTAATCTTTCTGTTCAAGCGCCATCTAC,0.229
10,GATGATTGTTCTCCCAGCTGATGAATTTGGATACTCGAGTAAACAAATTTTCCTAATCTTTCTGTTCAAGCGCCATCTAC,1.85
11,GATGATTGTTCTCCCAGCTGATGAATTTCTATTCTCGAGTAAACAAATTTTCCTAATCTTTCTGTTCAAGCGCCATCTAC,0.464
12,GATGATTGTTCTCCCAGCTGATGAATTCCAAAGCTCGAGTAAACAAATTTTCCTAATCTTTCTGTTCAAGCGCCATCTAC,0.221
13,GATGATTGTTCTCCCAGCTGATGAATTTATGTCGTCGAGTAAACAAATTTTCCTAATCTTTCTGTTCAAGCGCCATCTAC,2.07
14,GATGATTGTTCTCCCAGCTGATGAATTGTGAGCTTCGAGTAAACAAATTTTCCTAATCTTTCTGTTCAAGCGCCATCTAC,0.816
15,GATGATTGTTCTCCCAGCTGATGAATTGGATTCTTCGAGTAAACAAATTTTCCTAATCTTTCTGTTCAAGCGCCATCTAC,0.472
16,GATGATTGTTCTCCCAGCTGATGAATTCCTATTCTCGAGTAAACAAATTTTCCTAATCTTTCTGTTCAAGCGCCATCTAC,0.424

row,Sequence,binding signal (RPM ratio (pull-down/input))
1,GATGATTGTTCTCCCAGCTGATGAATTTCCCTTCTCGAGTAAACAAATTTTCCTAATCTTTCTGTTCAAGCGCCATCTAC,0.295
2,GATGATTGTTCTCCCAGCTGATGAATTACGGTATTCGAGTAAACAAATTTTCCTAATCTTTCTGTTCAAGCGCCATCTAC,1.04
3,GATGATTGTTCTCCCAGCTGATGAATTCCGGGAGTCGAGTAAACAAATTTTCCTAATCTTTCTGTTCAAGCGCCATCTAC,0.233
4,GATGATTGTTCTCCCAGCTGATGAATTGGTTACCTCGAGTAAACAAATTTTCCTAATCTTTCTGTTCAAGCGCCATCTAC,0.673
5,GATGATTGTTCTCCCAGCTGATGAATTGAACATGTCGAGTAAACAAATTTTCCTAATCTTTCTGTTCAAGCGCCATCTAC,0.36
6,GATGATTGTTCTCCCAGCTGATGAATTGTGATGCTCGAGTAAACAAATTTTCCTAATCTTTCTGTTCAAGCGCCATCTAC,1.96
7,GATGATTGTTCTCCCAGCTGATGAATTAGGCTTCTCGAGTAAACAAATTTTCCTAATCTTTCTGTTCAAGCGCCATCTAC,1.69
8,GATGATTGTTCTCCCAGCTGATGAATTTCTCGACTCGAGTAAACAAATTTTCCTAATCTTTCTGTTCAAGCGCCATCTAC,0.234
9,GATGATTGTTCTCCCAGCTGATGAATTCAATGGCTCGAGTAAACAAATTTTCCTAATCTTTCTGTTCAAGCGCCATCTAC,0.609
10,GATGATTGTTCTCCCAGCTGATGAATTCACGACCTCGAGTAAACAAATTTTCCTAATCTTTCTGTTCAAGCGCCATCTAC,0.269
11,GATGATTGTTCTCCCAGCTGATGAATTTAGGACGTCGAGTAAACAAATTTTCCTAATCTTTCTGTTCAAGCGCCATCTAC,0.367
12,GATGATTGTTCTCCCAGCTGATGAATTACTATGTTCGAGTAAACAAATTTTCCTAATCTTTCTGTTCAAGCGCCATCTAC,0.583
13,GATGATTGTTCTCCCAGCTGATGAATTGTATCAATCGAGTAAACAAATTTTCCTAATCTTTCTGTTCAAGCGCCATCTAC,1.23
14,GATGATTGTTCTCCCAGCTGATGAATTAAGGCCTTCGAGTAAACAAATTTTCCTAATCTTTCTGTTCAAGCGCCATCTAC,1.53
15,GATGATTGTTCTCCCAGCTGATGAATTGGCATCTTCGAGTAAACAAATTTTCCTAATCTTTCTGTTCAAGCGCCATCTAC,4.07

# Source: PMC12820563
